# Assay results: paper PMC4336329 (PLoS ONE, 2015)
# Among all 310,000 compounds or so, about 2,200 (0.71%) showed an effect of 50% or more. Effects have a minus sign here. The list shows a part of the results.
# Molecular target: human ether-à-go-go-related gene (hERG) potassium channel (human, UniProt Q12809)
# Test: primary screen, population patch clamp on CHO cells stably expressing hERG
# human ether-à-go-go-related gene (hERG) potassium channel, sequence (Q12809 whole entry, looked up): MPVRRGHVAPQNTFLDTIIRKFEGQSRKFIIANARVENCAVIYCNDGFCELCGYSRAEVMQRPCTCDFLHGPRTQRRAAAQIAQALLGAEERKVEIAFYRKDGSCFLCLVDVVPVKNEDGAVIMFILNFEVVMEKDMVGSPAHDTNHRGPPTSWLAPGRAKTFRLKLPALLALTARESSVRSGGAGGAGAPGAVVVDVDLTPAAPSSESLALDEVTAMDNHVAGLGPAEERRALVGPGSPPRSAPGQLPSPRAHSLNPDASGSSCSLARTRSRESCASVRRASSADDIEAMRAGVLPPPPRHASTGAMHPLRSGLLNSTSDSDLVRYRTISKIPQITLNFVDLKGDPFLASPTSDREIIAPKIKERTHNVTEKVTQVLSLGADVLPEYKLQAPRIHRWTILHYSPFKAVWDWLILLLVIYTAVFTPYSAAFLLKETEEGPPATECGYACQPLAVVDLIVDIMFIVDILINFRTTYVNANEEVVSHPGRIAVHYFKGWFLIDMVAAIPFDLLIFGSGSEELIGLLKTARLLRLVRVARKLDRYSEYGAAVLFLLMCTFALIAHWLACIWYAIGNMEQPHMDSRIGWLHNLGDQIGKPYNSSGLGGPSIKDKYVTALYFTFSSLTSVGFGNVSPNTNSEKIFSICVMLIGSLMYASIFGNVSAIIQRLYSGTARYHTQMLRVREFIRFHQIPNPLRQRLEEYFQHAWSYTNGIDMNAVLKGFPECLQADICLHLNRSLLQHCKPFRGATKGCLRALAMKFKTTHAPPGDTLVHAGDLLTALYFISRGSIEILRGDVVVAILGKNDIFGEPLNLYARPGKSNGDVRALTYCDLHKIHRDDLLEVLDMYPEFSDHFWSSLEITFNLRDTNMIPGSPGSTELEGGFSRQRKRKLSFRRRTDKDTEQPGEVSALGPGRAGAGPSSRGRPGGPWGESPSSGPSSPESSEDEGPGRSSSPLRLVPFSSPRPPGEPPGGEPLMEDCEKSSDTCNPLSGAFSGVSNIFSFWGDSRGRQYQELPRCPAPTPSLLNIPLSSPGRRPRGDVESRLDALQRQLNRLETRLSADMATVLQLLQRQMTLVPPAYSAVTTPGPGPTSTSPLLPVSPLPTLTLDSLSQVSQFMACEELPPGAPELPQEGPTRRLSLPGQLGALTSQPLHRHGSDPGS
row,SMILES,"hERG current change (%, negative = inhibition) at 1uM"
1,Cc1cc(C(F)(F)F)n(-c2nc(C(=O)Nc3cccnc3)cs2)n1,2.7%
2,Cc1ccc(N=Cc2cc(Br)cc(Cl)c2O)cc1,4.37%
3,Cc1ccc(NCc2nc(SCC(=O)Nc3ccccc3)n[nH]2)cc1,20%
4,CCOC(=O)N1CCC(Nc2ncnc3c2cnn3-c2ccccc2)CC1,4.01%
5,CCOC(=O)CSc1nc(-c2ccc3c(c2)OCO3)ccc1C#N,6.46%
6,Cn1cc(C(=O)c2ccc(Cl)cc2)cc1-c1nc2ccccc2n1C,0.332%
7,COc1ccccc1CNC(=O)CCc1nc2ccccc2c(=O)[nH]1,4.98%
8,CSc1ccc(/C=N/NC(=O)COc2ccc(Br)cc2Cl)cc1,13%
9,O=C(/C=C/c1ccc(F)cc1)NC(Cc1c[nH]c2ccccc12)C(=O)O (stereo not shown),8.41%
10,O=c1c2ccccc2sn1-c1cc(S(=O)(=O)N2CCOCC2)ccc1N1CCCC1,7.15%
11,CC1CC2(CCCC2)N(C(=O)N(C)C)c2ccc(F)cc21 (stereo not shown),10.1%
12,O=Cc1ccccc1OCCN1CCCC1=O,9.45%
13,COc1ccccc1CNC(=O)c1cn(C)c2ccc(S(=O)(=O)N3CCCCC3)cc2c1=O,14.1%
14,CN(C)S(=O)(=O)c1ccc(C(=O)NCc2nnc(SCC(=O)N3CCCCCC3)o2)cc1,14.8%
15,CCOC(=O)C1=C(c2ccc(OC)cc2)C(=O)c2ccccc2C1=O,15.6%
16,COc1ccc2cc(C(=O)NCc3ccccc3)c(=O)oc2c1,16.1%
17,COC(=O)c1ccc(OC)c(-c2c(OC)cc(OC)cc2OC)c1,7.38%
18,CCOC(=O)c1c(C=O)c2ccccc2n1CC,8.61%
19,Cc1ccc(C(=O)N(C)c2ccc(OCC(=O)N3c4ccc(C)cc4C4CN(C)CCC43)cc2)cc1.Cl (stereo not shown),0.0382%
20,O=C(c1cc(S(=O)(=O)N2CCCCC2)c(Cl)cc1N1CCOCC1)N1CCOCC1,2.03%
21,COc1ccccc1/C=C/C=N/n1c(-c2ccccc2)n[nH]c1=S,1.14%
22,CSc1ccc(S(=O)(=O)N2CCC(C(=O)NCc3ccccn3)CC2)cc1,12.3%

row,SMILES,"hERG current change (%, negative = inhibition) at 1uM"
1,Cc1ccc(C)c(NC(=O)CN(C)C(=O)CCN2C(=O)c3ccccc3C2=O)c1,7.88%
2,CCOC(=O)/C=C1\SCC(=O)N1CC(=O)NCc1ccc(OC)c(OC)c1,13.3%
3,O=C(CN1CCN(S(=O)(=O)N2CCCCC2)CC1)Nc1ccc(Br)cc1,2.87%
4,CC1(C)C2CCC1(CS(=O)(=O)N1CCC(C(=O)O)CC1)C(=O)C2 (stereo not shown),7.67%
5,Cc1ccc(C)c(N2N=C(C(=O)O)CCC2=O)c1,4.02%
6,COc1cc(O)c(C(CCN2CCCC2)c2ccc(N(C)C)cc2)c(OC)c1 (stereo not shown),5.8%
7,COCC1CCCCN1C(=O)C1CCN(c2nc(-c3ccccc3)nc3c2CCC3)CC1 (stereo not shown),6.13%
8,CC1Cc2cc(S(=O)(=O)NCCC(=O)NCc3ccc(F)cc3)ccc2N1C(=O)C1CC1 (stereo not shown),7.18%
9,CC(C)NCCCCOc1ccc(Br)cc1Cl.O=C(O)C(=O)O,-16.1%
10,COc1ccc(N(CN2C(=O)c3ccccc3C2=O)C(=O)COc2ccc(Cl)cc2Cl)cc1,19.7%
11,CC(C)CN(C(=O)CCc1ccccc1Cl)c1c(N)n(Cc2ccccc2)c(=O)[nH]c1=O,4.48%
12,CCNC(=S)N(CCN(C)C)Cc1cc2cc3c(cc2[nH]c1=O)OCO3,11.7%
13,O/N=C/c1cc(Br)ccc1OCc1cccc(F)c1,7.33%
14,Cc1cccc(NC(=O)Nc2ccccc2[N+](=O)[O-])n1,10%
15,COc1cc(/C=N/NC(=O)C2=NNC(=O)C2C)ccc1O (stereo not shown),5.74%
16,CCOc1ccccc1N(CC(=O)NC1CCCC1)S(=O)(=O)c1ccc(C)cc1,-1.59%
17,O=C(COc1coc(CN2CCN(c3ccc(F)cc3)CC2)cc1=O)Nc1ccccc1,10.6%
18,CS(=O)(=O)N(CC(=O)N1CCCCCC1)Cc1ccc(Cl)cc1,5.17%
19,CCCCCP(=O)(O)c1ccccc1,9.45%
20,Cc1n[nH]c(=S)n1-c1ccc(Cl)cc1,12.3%
21,CC(=O)c1cccc(NC(=S)NC(=O)c2ccc(Br)cc2)c1,6.93%
22,Cc1cc(C)c(S(=O)(=O)N2CCN(C(=O)c3cc(=O)[nH]c4ccccc34)CC2)c(C)c1,-14.6%

row,SMILES,"hERG current change (%, negative = inhibition) at 1uM"
1,O=C(CCCN1C(=O)/C(=C/c2cccs2)SC1=S)NNC(=O)c1cccnc1,14.9%
2,O=C(CCN1CCCCC1)NNC(=S)NC(=O)c1ccc(Br)cc1,6.71%
3,Cc1nn(C)c(C)c1C1Nc2ccccc2C(=O)N1O (stereo not shown),9.61%
4,O=C(NCCC1=CCCCC1)C1CCCN(S(=O)(=O)c2ccccc2)C1 (stereo not shown),7.8%
5,Cc1nc(N)sc1C(=O)Nc1ccccc1.Cl,10.1%
6,COc1ccc(NC(=O)CSc2nc3ccccc3c(=O)n2-c2ccc3c(c2)OCO3)c(OC)c1,14.3%
7,Cc1cccc(-c2nnnn2-c2cccc(C)c2)c1,5.74%
8,CCCCOc1ccc(C(=O)NC(=S)Nc2ccc(CN3CCOCC3)cc2)cc1,2.01%
9,O=C(C1Cc2ccccc2CN1S(=O)(=O)c1ccc(F)cc1)N1CCOCC1 (stereo not shown),0.885%
10,CCCCc1nc(C(N)=O)c2[nH]c(=O)n(-c3ccc(OC)c(OC)c3)c2n1,5.64%
11,Cc1ccccc1C(=O)Nc1cccc(N)c1,9.77%
12,CCOC(=O)C1(C)NC(c2ccc(OC)cc2OC)C2C(=O)N(c3cccc(OC)c3)C(=O)C21 (stereo not shown),13.8%
13,CCOC(=O)N1CCN(C(=O)c2ccc(CS(=O)(=O)c3c(Cl)cccc3Cl)o2)CC1,-2.28%
14,CC1(C)CC(=O)C2=C(C1)OC1OC(=O)CC21C (stereo not shown),10.8%
15,O=c1cc(Nc2cccc(Br)c2)[nH]c(=O)[nH]1,10.1%
16,COc1ccc(C(=O)OCc2c(-c3cccc(OC)c3)ncc3ccccc23)cc1,12.1%
17,CCN1CCN(CC(O)COc2ccc3c(C)cc(=O)oc3c2)CC1.Cl (stereo not shown),7.75%
18,COc1ccc(-n2nc([N+](=O)[O-])c(=NCCc3ccc(C)cc3)n2O)cc1,1.78%
19,O=C(NCc1ccccn1)Nc1ccccc1Cl,12.8%
20,CCOC(=O)c1ccc(NC(=S)N(CCCN2CCCC(C)C2)Cc2cccs2)cc1 (stereo not shown),-5.72%
21,CCCCCCOc1ccc(CN2CCN(CC)CC2)cc1,-10.3%
22,Nc1nnc(CC(=O)N/N=C/c2cc([N+](=O)[O-])cc(Br)c2O)s1,3.19%

row,SMILES,"hERG current change (%, negative = inhibition) at 1uM"
1,Cc1nonc1CC(=O)N1CCCC(C(=O)c2cccc(C(F)(F)F)c2)C1 (stereo not shown),-20.6%
2,S=C(Nc1cc(Cl)cc(Cl)c1)N1CCCC1,7.89%
3,N#C/C(=C\c1ccc(N2CCOCC2)c([N+](=O)[O-])c1)c1nc2ccccc2[nH]1,-19.7%
4,O=C(c1ccco1)[C@@H]1[C@@H]2C(=O)N(c3ccccc3)C(=O)[C@@H]2C2c3ccccc3C=CN21 (stereo partly shown),8.19%
5,CC(=O)NC(C(=O)N1CCC(c2nc3ccccc3s2)CC1)C(C)C (stereo not shown),8.96%
6,COc1ccccc1NNC(=O)C(O)(c1ccccc1OC)c1ccccc1OC,15.9%
7,CCN(CC(=O)Nc1c(F)cccc1F)C(=O)c1cccc(-n2cccc2)c1,-8.02%
8,O=C(CSc1ccc(C(F)(F)F)cc1[N+](=O)[O-])N1CCOCC1,8.86%
9,COCCN(C(=O)c1cc(Cl)nc2ccccc12)c1c(N)n(Cc2ccccc2)c(=O)[nH]c1=O,10.8%
10,CC(C)(C)c1ccc(C(=O)Nn2cnnc2)cc1,17%
11,CCCCNC(=S)Nc1ccc([N+](=O)[O-])cc1,10.4%
12,CCC1CCCCN1CCN1C(=O)C2C(C(=O)Nc3ccc(OC)cc3)C3C=CC2(O3)C1C(=O)NC1CCCCC1 (stereo not shown),10.6%
13,CCn1ncc(CN2CCN(Cc3cccc(OC)c3)C(CCO)C2)c1C (stereo not shown),6.94%
14,CN=C1SC(CC(=O)Nc2ccc(F)cc2F)C(=O)N1/N=C(\C)c1cccc(OCC(=O)O)c1 (stereo not shown),8.03%
15,Cc1cc(C)nc(N/N=C/c2sccc2C)n1,7.82%
16,COc1ccc(/C=N/NC(=O)C[n+]2ccccc2)c(OC)c1.[Cl-],7.85%
17,CC1CCC(NC(=O)C2c3ccccc3C(=O)N2Cc2cccs2)CC1 (stereo not shown),9.72%
18,CN(CCOc1ccccc1)C(=O)c1ccc(F)c(S(=O)(=O)N2CCOCC2)c1,9.03%
19,CCOc1cc(N2CCOCC2)c(OCC)cc1NC(=O)c1ccc(OCc2c(C)noc2C)c(OC)c1,15.1%
20,CCc1c(O)nc(SC2CC(=O)N(c3ccc(F)c(Cl)c3)C2=O)[nH]c1=O (stereo not shown),10.5%
21,CC1CCCCC1NC(=O)COC(=O)COc1ccc(Cl)cc1 (stereo not shown),-1.93%
22,O=[N+]([O-])c1ccc(-n2nnnc2-c2ccccc2)c([N+](=O)[O-])c1,15.2%
